# Laboratory results as given in PubChem BioAssay AID624296 (National Center for Advancing Translational Sciences (NCATS), 2012).
# Screen size: about 350,000 compounds; about 9,900 (2.8%) were called active. This list was built around the results that the source calls inconclusive (neither active nor inactive); the mix of calls is not that of the screen. Calls come from the whole dose curve; as a rule, active = well fitted activation curve with a large enough effect; inconclusive = small, poorly fitted or top-dose-only effect; inactive = no such curve, though single readings can be large or run the other way. Potencies of inconclusive entries are left out as doubtful fits.
# Test: A quantitative high throughput screen for small molecules that induce DNA re-replication in MCF 10a normal breast cells. For activity, positive = re-replication: % of control where 0% means no effect. Note: nearly all actives have a fitted effect of over 50% in size.
# Details: MCF 10A DNA re-replication, Hoechst nuclear intensity, 48 h; activity, positive = re-replication: at 46.1 µM (top of the series)
# Potency is the fitted concentration of half-maximal effect; tags give direction and shape of the fitted curve.
SMILES,Potency,"activity, positive = re-replication"
N=C(N)SCc1nc2ccccc2c(=O)n1-c1ccccc1Cl,"inconclusive [activator, single point]",
O=C(COc1ccccc1)NC(=S)Nc1ccc2c(c1)Cc1ccccc1-2,"inconclusive [activator, partial curve, poor fit]",
O=C(OCc1csc(-c2ccccc2)n1)c1cccs1,"inconclusive [activator, partial curve, poor fit]",
Cc1[nH]n(-c2ccccc2)c(=S)c1C=Nc1cccc([N+](=O)[O-])c1,"inconclusive [activator, partial curve, poor fit]",
CC(C)OC(=O)c1cn(-c2ccccc2)nc1-c1ccco1,"inconclusive [activator, single point]",
CCCCN(C(=O)NC(=O)Nc1c(C)cc(C)cc1C)S(C)(=O)=O,"inconclusive [activator, single point]",
CCC(=O)C1CCCN(C(=O)c2ccc3nc(-c4cccc(OC)c4)oc3c2)C1 (configuration not stated),"inconclusive [activator, single point]",
Cn1c2ccccc2c(=O)c2cc(NCCCN3CCOCC3)ccc21,"inconclusive [activator, single point]",
C=CCNC(=O)c1onc(CCl)c1C(=O)OC,active: 18.4 µM,
COc1cccc(-c2nc(SC)nc3sc(C(=O)NC(C)(C)C)c(N)c23)c1,"inconclusive [activator, single point]",
Cc1c(C=O)c2ccccn2c1C(=O)c1ccc(Cl)c([N+](=O)[O-])c1,,inactive: 10.4% [at 9.22 µM]
O=c1cc(O)sc2ccccc12,"inconclusive [activator, partial curve, poor fit]",
COc1cccc(-n2cc(-c3ccc(F)cc3)[nH]c2=S)c1,inactive,
COc1ccc(-c2noc(CCCC(=O)N3CCN(c4cc(C)ccc4C)CC3)n2)cc1,active: 13 µM,
CN1CCc2nc3sc(C(=O)NCc4ccccc4)c(N)c3cc2C1,active: 18.4 µM,
COCCCNc1nc2cc(OC)c(OC)cc2c2nc(-c3ccccc3)nn12,inactive,
COc1ccc(CNC(=O)C(c2ccco2)N(C(=O)c2snc(C(N)=O)c2N)c2cccc(OC)c2)cc1 (configuration not stated),"inconclusive [activator, partial curve, poor fit]",
COCc1cc(C)nc(OCC(=O)N/N=C/c2ccc(OC)c(OC)c2)c1C#N,"inconclusive [activator, full curve, poor fit]",
CCOC(=O)c1ccc(NC(=O)c2ccc3c(c2)C(=O)N(CC2CCCO2)C3=O)cc1 (configuration not stated),inactive,
COc1ccccc1CNC(=O)CNC(=O)[C@@H]1Cc2ccccc2CN1,inactive,
CCN(CC)S(=O)(=O)c1ccc(N/N=C/c2cc(OC)ccc2O)nc1,"inconclusive [activator, partial curve, poor fit]",
CCCCOC(=O)CNc1nnc(SCC(=O)OCC)[nH]c1=O,"inconclusive [activator, single point]",
COc1ccc(N(C)S(=O)(=O)c2cccc(C(=O)Nc3ccc4c(c3)OCCO4)c2)cc1,"inconclusive [activator, partial curve, poor fit]",

SMILES,Potency,"activity, positive = re-replication"
Cc1cccc(NC(=O)C2CCN(S(=O)(=O)c3c(C)noc3/C=C/c3ccco3)CC2)n1,"inconclusive [activator, partial curve, poor fit]",
CN1CCc2nc(NC(=O)COc3ccc4ccccc4c3)sc2C1,active: 13 µM,
CC(=O)Nc1ccc(NC(=O)C2CCN(c3c(Cc4ccccc4)c(C)nc4ncnn34)CC2)cc1,inactive,
CCOC(=O)CCC(=O)Nc1ccc(S(=O)(=O)Nc2cc(OC)nc(OC)n2)cc1,"inconclusive [activator, single point]",
Cn1c(N=NC(=O)c2ccccc2)c(O)c2ccccc21,inactive,
Cc1[nH]c2ccccc2c1C(C[N+](=O)[O-])c1ccco1 (configuration not stated),inactive,
COc1cccc(-c2nn(-c3ccc(C)cc3)cc2C(=O)N(C)CC(=O)Nc2cccc(F)c2)c1,"inconclusive [activator, partial curve, poor fit]",
O=C(CC1CC2CCC1C2)N1CCN(S(=O)(=O)c2ccccc2F)CC1 (configuration not stated),inactive,
CC(C)(C)c1ccc(OCC(=O)O/N=C(\N)c2ccncc2)cc1,"inconclusive [activator, partial curve, poor fit]",
COc1ccc(CN=C(C)c2c(C(F)(F)F)[nH]n(-c3nc4ccccc4s3)c2=O)cc1,"inconclusive [activator, partial curve, poor fit]",
Cc1cccc(NC(=O)c2cc(-c3ccc(C)s3)nc3ccccc23)n1,"inconclusive [activator, full curve]",
O=C(Oc1c(-c2ccco2)oc2ccccc2c1=O)c1cccnc1,"inconclusive [activator, single point]",
Cc1ccc(S(=O)(=O)N2CCCCC2)cc1NC(=O)Cn1cnnn1,"inconclusive [activator, partial curve, poor fit]",
COc1ccc(NS(=O)(=O)c2cc(NC(=O)Cc3c(F)cccc3Cl)ccc2OC)cc1,"inconclusive [activator, single point]",
Cc1ccc(-c2nc3cccnc3s2)cc1NS(=O)(=O)c1ccc2c(c1)OCCO2,"inconclusive [activator, single point]",
COc1ccc(NC(=S)N(CCC(C)C)C2CCN(C(C)C)CC2)cc1Cl,"inconclusive [activator, single point]",
Cc1cccc(C)c1NC(=O)CSc1nc(C)c(CC(=O)c2ccc(Br)cc2)c(C)c1C#N,active: 16.4 µM,
COCCCNC(=O)c1ccc(-c2nc3ccccc3nc2-c2ccccc2)cc1,"inconclusive [activator, single point]",
O=C(NC(=S)NNC(=O)c1ccccc1O)c1ccco1,inactive,
O=CCCCC=O,inactive,
O=C(/C=C/c1ccc(Cl)c([N+](=O)[O-])c1)Nc1ccc(N2CCCC2)c(Cl)c1,"inconclusive [activator, partial curve, poor fit]",
COc1cc(F)ccc1S(=O)(=O)NCc1cccnc1,inactive,
CC(=O)Nc1cccc(Oc2ncnc3scc(-c4ccc(C)cc4)c23)c1,inactive,

SMILES,Potency,"activity, positive = re-replication"
COc1ccccc1Nc1nn2c(=O)c3ccc(C(=O)N4CCCCC4)cc3nc2s1,"inconclusive [activator, single point]",
CCOc1cc(NC(=O)c2ccco2)c(OCC)cc1NC(=O)COc1ccccc1C,active: 2.06 µM,
CC1CCCC(C)N1C(=O)c1cc(-c2ccco2)on1 (configuration not stated),inactive,
CC1(C)Cc2ccccc2C(NNC(=O)c2ccc(Br)o2)=N1,"inconclusive [activator, partial curve, poor fit]",
O=C(NCCN1CCCC1)c1ccc(Cn2c(=S)[nH]c3ccc(Br)cc3c2=O)cc1,"inconclusive [activator, partial curve, poor fit]",
Cc1ccc(OCc2cc(C(=O)N3CC4C[C@@H]5CC3C[C@H](C4)C5)no2)cc1C,"inconclusive [activator, partial curve, poor fit]",
CCc1ccccc1NC(=O)Nc1cccc(F)c1,inactive,
Cc1cccc(Nc2nc(N)c(C#N)c(CC#N)c2C#N)c1,"inconclusive [activator, full curve]",
COc1ccc(C2(c3ccc(OC(C)=O)cc3OC(C)=O)CC(c3ccccc3)NC(=S)N2)cc1 (configuration not stated),inactive,
CC1=NOC(=O)/C1=C\c1ccc(-c2ccccc2Br)o1,"inconclusive [activator, single point]",
CCCCCCCOC(=O)c1nc(Cl)c(Cl)c(N)c1Cl,"inconclusive [activator, single point]",
O=C(Cn1cnc2ccccc2c1=O)N/N=C/c1ccc(Br)cc1,"inconclusive [activator, partial curve, poor fit]",
CCCCCCCc1c(O)nc(SCCN2CCOCC2)[nH]c1=O,"inconclusive [activator, partial curve, poor fit]",
C=CCN1C(=O)C(Cc2ccc(OCC)cc2)S/C1=N\N=C\c1cccs1 (configuration not stated),"inconclusive [activator, partial curve, poor fit]",
CCOC(=O)c1ccc(NC(=O)CCc2nc(-c3ccccc3Cl)no2)cc1,"inconclusive [activator, single point]",
COc1cc([N+](=O)[O-])cc(/C=N/NC(=O)CSc2nnc(-c3ccccc3)n2C)c1O,"inconclusive [activator, full curve, poor fit]",
Cn1c(C(=O)NC2CCCCC2)cc2c(=O)n(C)c3ccccc3c21,"inconclusive [activator, single point]",
O=C(Cn1cnc2ccccc2c1=O)N1CCN(c2ccccc2)CC1,inactive,
CN(C)/C=C(/C#N)C(=O)c1cccc(Oc2ccc(C(C)(C)C)cc2)c1,"inconclusive [activator, single point]",
C=CCn1c(NS(=O)(=O)c2ccccc2)c(S(=O)(=O)c2ccc(C)cc2)c2nc3ccccc3nc21,active: 14.6 µM,
N#CNC(=Nc1ccc(F)cc1)SCc1ccccc1,"inconclusive [activator, partial curve, poor fit]",
